Source: the supplement of paper PMC5499739
The full ranking holds about 16,000 sequences; the median of “Z-score” is about -0.37, and the highest 2% start at about 3.1. This is one part of the list.

What follows are sequences tested on RBM10 RRM1-ZnF-RRM2 (GST-tagged construct) (assay: RNAcompete 7-mer binding Z-score; higher = stronger binding preference).
Experimental: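 RNAcompete: 20 pmol GST-tagged RBM10 RNA-binding constructs were incubated with a designed RNA pool of about 241,000 sequences up to 41 nt (1.5 nmol) on glutathione beads for 30 min at 4 °C and washed. Bound RNAs were identified by microarray hybridisation. Each RNA 7-mer is scored by a one-sided Z-score of its enrichment, computed over probes that contain the 7-mer within longer pool sequences.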
With UCUAUCU the “RNAcompete 7-mer binding Z-score” value was -0.592.
With AUAUUCC the “RNAcompete 7-mer binding Z-score” value was -0.748.
AUAAUUC was tested, and the “RNAcompete 7-mer binding Z-score” value was -0.628.
UUCGAAC was tested, and the “RNAcompete 7-mer binding Z-score” value was -0.53.
With CAGAGAU the “RNAcompete 7-mer binding Z-score” value was 0.359.
With CAUGCUU the “RNAcompete 7-mer binding Z-score” value was -0.861.
With AUUCGGC the “RNAcompete 7-mer binding Z-score” value was -0.275.
In the case of GCGCUUU, the “RNAcompete 7-mer binding Z-score” value is reported as -0.785.
For GGACACG, the “RNAcompete 7-mer binding Z-score” value was 0.989.
For GUCAGAA, the “RNAcompete 7-mer binding Z-score” value was 0.243.
For CAUGAGA, the “RNAcompete 7-mer binding Z-score” value was 0.024.
For CGGGGUG, the “RNAcompete 7-mer binding Z-score” value was 3.36.
GCAGGUA was tested, and the “RNAcompete 7-mer binding Z-score” value was 1.67.
For AGAUUGA, the “RNAcompete 7-mer binding Z-score” value was 0.381.
With UGGUCAU the “RNAcompete 7-mer binding Z-score” value was 0.17.
For UGUCUAG, the “RNAcompete 7-mer binding Z-score” value was -0.577.
With AGGCUCU the “RNAcompete 7-mer binding Z-score” value was -0.69.
GAAAUGA was tested, and the “RNAcompete 7-mer binding Z-score” value was 0.705.
GUGGCUC was tested, and the “RNAcompete 7-mer binding Z-score” value was 0.133.
UCAAAGG was tested, and the “RNAcompete 7-mer binding Z-score” value was 0.691.
For AUUGACC, the “RNAcompete 7-mer binding Z-score” value was -0.573.
In the case of CCAUAAU, the “RNAcompete 7-mer binding Z-score” value is reported as -0.81.
With UCAGCAA the “RNAcompete 7-mer binding Z-score” value was -0.337.
AGUGGCC was tested, and the “RNAcompete 7-mer binding Z-score” value was 0.173.
For ACUACAU, the “RNAcompete 7-mer binding Z-score” value was -0.628.
In the case of UUGACGC, the “RNAcompete 7-mer binding Z-score” value is reported as -0.522.
GCUGGGA was tested, and the “RNAcompete 7-mer binding Z-score” value was 1.69.
In the case of AUCGCCA, the “RNAcompete 7-mer binding Z-score” value is reported as -0.759.
GUUAAGG was tested, and the “RNAcompete 7-mer binding Z-score” value was 1.99.
GUGGUGA was tested, and the “RNAcompete 7-mer binding Z-score” value was 1.84.
With CACACGC the “RNAcompete 7-mer binding Z-score” value was -0.307.
GAUGGGG was tested, and the “RNAcompete 7-mer binding Z-score” value was 4.
AUUGCAU was tested, and the “RNAcompete 7-mer binding Z-score” value was -0.395.
For UUCACAU, the “RNAcompete 7-mer binding Z-score” value was -0.679.
With AUUCGUC the “RNAcompete 7-mer binding Z-score” value was -0.643.
With GGGACCG the “RNAcompete 7-mer binding Z-score” value was 1.19.
In the case of ACUGGGU, the “RNAcompete 7-mer binding Z-score” value is reported as 1.96.
For AAAGGCC, the “RNAcompete 7-mer binding Z-score” value was 0.279.
With UCAACGA the “RNAcompete 7-mer binding Z-score” value was -0.322.
CAGGCAA was tested, and the “RNAcompete 7-mer binding Z-score” value was 1.
In the case of AUAAUAU, the “RNAcompete 7-mer binding Z-score” value is reported as -0.49.
In the case of GCUCUAG, the “RNAcompete 7-mer binding Z-score” value is reported as -0.701.
In the case of UCAGCGC, the “RNAcompete 7-mer binding Z-score” value is reported as -0.515.
GGUUACU was tested, and the “RNAcompete 7-mer binding Z-score” value was 0.141.
In the case of UCUGUGC, the “RNAcompete 7-mer binding Z-score” value is reported as -0.825.
For ACCGCUA, the “RNAcompete 7-mer binding Z-score” value was -0.872.
For GGCGUUG, the “RNAcompete 7-mer binding Z-score” value was 0.534.
With AGUGAUC the “RNAcompete 7-mer binding Z-score” value was -0.00877.
CAGUGGC was tested, and the “RNAcompete 7-mer binding Z-score” value was 0.865.
In the case of GGUUAAU, the “RNAcompete 7-mer binding Z-score” value is reported as 1.14.
With AUGAAUC the “RNAcompete 7-mer binding Z-score” value was -0.184.
GAUGUAA was tested, and the “RNAcompete 7-mer binding Z-score” value was 0.217.
In the case of UUAGCAA, the “RNAcompete 7-mer binding Z-score” value is reported as -0.129.
With UCUUACC the “RNAcompete 7-mer binding Z-score” value was -0.934.
In the case of AUUCGAC, the “RNAcompete 7-mer binding Z-score” value is reported as -0.708.
For ACAUGCA, the “RNAcompete 7-mer binding Z-score” value was -0.103.
UAGACAU was tested, and the “RNAcompete 7-mer binding Z-score” value was -0.198.
CUGUACA was tested, and the “RNAcompete 7-mer binding Z-score” value was -0.537.
For GACUCAG, the “RNAcompete 7-mer binding Z-score” value was -0.413.
With GGCACGU the “RNAcompete 7-mer binding Z-score” value was 0.683.
In the case of UAGAUGC, the “RNAcompete 7-mer binding Z-score” value is reported as -0.267.
With UUCUAUG the “RNAcompete 7-mer binding Z-score” value was -0.755.
In the case of GCAGGCG, the “RNAcompete 7-mer binding Z-score” value is reported as 1.54.
GACUACU was tested, and the “RNAcompete 7-mer binding Z-score” value was -0.77.
With GGCGAAG the “RNAcompete 7-mer binding Z-score” value was 2.29.
With AGCUCAC the “RNAcompete 7-mer binding Z-score” value was -0.846.
With GUUACUU the “RNAcompete 7-mer binding Z-score” value was -0.515.
With AAUCGGU the “RNAcompete 7-mer binding Z-score” value was 0.377.
CAUCAGA was tested, and the “RNAcompete 7-mer binding Z-score” value was -0.351.
With UCGGGUU the “RNAcompete 7-mer binding Z-score” value was 0.916.
For UUGUAAC, the “RNAcompete 7-mer binding Z-score” value was -0.668.
For GGGGAGG, the “RNAcompete 7-mer binding Z-score” value was 3.33.
In the case of GUCUAUC, the “RNAcompete 7-mer binding Z-score” value is reported as -0.486.
In the case of UAGGAUC, the “RNAcompete 7-mer binding Z-score” value is reported as 0.618.
With AAGUAUG the “RNAcompete 7-mer binding Z-score” value was 0.607.
For AGAUUUC, the “RNAcompete 7-mer binding Z-score” value was -0.559.
For GGGGACC, the “RNAcompete 7-mer binding Z-score” value was 1.51.
UUACGCU was tested, and the “RNAcompete 7-mer binding Z-score” value was -0.486.
In the case of AUCUUUC, the “RNAcompete 7-mer binding Z-score” value is reported as -0.846.
With AGUAACC the “RNAcompete 7-mer binding Z-score” value was -0.337.
With UCAGUCA the “RNAcompete 7-mer binding Z-score” value was -0.493.
With GAGCCAA the “RNAcompete 7-mer binding Z-score” value was -0.249.
For CACACGA, the “RNAcompete 7-mer binding Z-score” value was -0.559.
In the case of AACAUGG, the “RNAcompete 7-mer binding Z-score” value is reported as 1.32.
For UAUGAUC, the “RNAcompete 7-mer binding Z-score” value was -0.69.
With CUGGAUC the “RNAcompete 7-mer binding Z-score” value was -0.333.
In the case of GGUGGAU, the “RNAcompete 7-mer binding Z-score” value is reported as 2.46.
In the case of CGGGCCA, the “RNAcompete 7-mer binding Z-score” value is reported as 0.159.
ACCAUCU was tested, and the “RNAcompete 7-mer binding Z-score” value was -0.919.
With GACAAAC the “RNAcompete 7-mer binding Z-score” value was -0.347.
With AAACAAA the “RNAcompete 7-mer binding Z-score” value was -0.0488.
For CAUGACA, the “RNAcompete 7-mer binding Z-score” value was -0.551.
For CACAUCC, the “RNAcompete 7-mer binding Z-score” value was -0.664.
In the case of UCCGCUA, the “RNAcompete 7-mer binding Z-score” value is reported as -0.683.
In the case of UUAUCGA, the “RNAcompete 7-mer binding Z-score” value is reported as -0.34.
AAAGAUG was tested, and the “RNAcompete 7-mer binding Z-score” value was 0.599.
AAUCUUC was tested, and the “RNAcompete 7-mer binding Z-score” value was -0.748.
In the case of GAUCUCG, the “RNAcompete 7-mer binding Z-score” value is reported as -0.679.
GGGUGGA was tested, and the “RNAcompete 7-mer binding Z-score” value was 4.54.
For GAAUUGG, the “RNAcompete 7-mer binding Z-score” value was 2.4.
With UCUAAUU the “RNAcompete 7-mer binding Z-score” value was -0.817.
With AUCAAUC the “RNAcompete 7-mer binding Z-score” value was -0.362.
For CGCCAUC, the “RNAcompete 7-mer binding Z-score” value was -0.741.
In the case of CUAUGUU, the “RNAcompete 7-mer binding Z-score” value is reported as -0.606.
CAAUACU was tested, and the “RNAcompete 7-mer binding Z-score” value was -0.559.
In the case of AGUACCU, the “RNAcompete 7-mer binding Z-score” value is reported as -0.519.
In the case of CGGAAUU, the “RNAcompete 7-mer binding Z-score” value is reported as 0.501.
In the case of CGUCUGU, the “RNAcompete 7-mer binding Z-score” value is reported as -0.57.
With AGGACCU the “RNAcompete 7-mer binding Z-score” value was -0.65.
CGUUCAC was tested, and the “RNAcompete 7-mer binding Z-score” value was -0.61.
For AGGCACU, the “RNAcompete 7-mer binding Z-score” value was -0.271.
CUCUGCC was tested, and the “RNAcompete 7-mer binding Z-score” value was -0.887.
With ACCCCUG the “RNAcompete 7-mer binding Z-score” value was -0.785.
UCUCCAU was tested, and the “RNAcompete 7-mer binding Z-score” value was -0.755.
CAAGAAA was tested, and the “RNAcompete 7-mer binding Z-score” value was -0.125.
With UGGCGGG the “RNAcompete 7-mer binding Z-score” value was 3.19.
In the case of GCAAGCA, the “RNAcompete 7-mer binding Z-score” value is reported as -0.00148.
